B1: Venus(N)·ORP4L (protein, UniProt Q969R2 1-916)
chain: MGKAAAPSRGGGCGGRSRGLSSLFTVVPCLSCHTAAPGMSASTSGSGPEPKPQPQPVPEPERGPLSEQVSEAVSEAVPRSEPVSETTSEPEPGAGQPSELLQGSRPGSESSSGVGAGPFTKAASEPLSRAVGSATFLRPESGSLPALKPLPLLRPGQAKTPLGVPMSGTGTTSSAPLALLPLDSFEGWLLKWTNYLKGYQRRWFVLGNGLLSYYRNQGEMAHTCRGTINLSTAHIDTEDSCGILLTSGARSYHLKASSEVDRQQWITALELAKAKAVRVMNTHSDDSGDDDEATTPADKSELHHTLKNLSLKLDDLSTCNDLIAKHGAALQRSLTELDGLKIPSESGEKLKVVNERATLFRITSNAMINACRDFLELAEIHSRKWQRALQYEQEQRVHLEETIEQLAKQHNSLERAFHSAPGRPANPSKSFIEGSLLTPKGEDSEEDEDTEYFDAMEDSTSFITVITEAKEDSRKAEGSTGTSSVDWSSADNVLDGASLVPKGSSKVKRRVRIPNKPNYSLNLWSIMKNCIGRELSRIPMPVNFNEPLSMLQRLTEDLEYHHLLDKAVHCTSSVEQMCLVAAFSVSSYSTTVHRIAKPFNPMLGETFELDRLDDMGLRSLCEQVSHHPPSAAHYVFSKHGWSLWQEITISSKFRGKYISIMPLGAIHLEFQASGNHYVWRKSTSTVHNIIVGKLWIDQSGDIEIVNHKTNDRCQLKFLPYSYFSKEAARKVTGVVSDSQGKAHYVLSGSWDEQMECSKVMHSSPSSPSSDGKQKTVYQTLSAKLLWKKYPLPENAENMYYFSELALTLNEHEEGVAPTDSRLRPDQRLMEKGRWDEANTEKQRLEEKQRLSRRRRLEACGPGSSCSSEEEKEADAYTPLWFEKRLDPLTGEMACVYKGGYWEAKEKQDWHMCPNIF
B2: Venus(N)·ORP1L (protein, UniProt Q9BXW6-1 1-950)
chain: MNTEAEQQLLHHARNGNAEEVRQLLETMARNEVIADINCKGRSKSNLGWTPLHLACYFGHRQVVQDLLKAGAEVNVLNDMGDTPLHRAAFTGRKELVMLLLEYNADTTIVNGSGQTAKEVTHAEEIRSMLEAVERTQQRKLEELLLAAAREGKTTELTALLNRPNPPDVNCSDQLGNTPLHCAAYRAHKQCALKLLRSGADPNLKNKNDQKPLDLAQGAEMKHILVGNKVIYKALKRYEGPLWKSSRFFGWRLFWVVLEHGVLSWYRKQPDAVHNIYRQGCKHLTQAVCTVKSTDSCLFFIKCFDDTIHGFRVPKNSLQQSREDWLEAIEEHSAYSTHYCSQDQLTDEEEEDTVSAADLKKSLEKAQSCQQRLDREISNFLKMIKECDMAKEMLPSFLQKVEVVSEASRETCVALTDCLNLFTKQEGVRNFKLEQEQEKNKILSEALETLATEHHELEQSLVKGSPPASILSEDEFYDALSDSESERSLSRLEAVTARSFEEEGEHLGSRKHRMSEEKDCGGGDALSNGIKKHRTSLPSPMFSRNDFSIWSILRKCIGMELSKITMPVIFNEPLSFLQRLTEYMEHTYLIHKASSLSDPVERMQCVAAFAVSAVASQWERTGKPFNPLLGETYELVRDDLGFRLISEQVSHHPPISAFHAEGLNNDFIFHGSIYPKLKFWGKSVEAEPKGTITLELLEHNEAYTWTNPTCCVHNIIVGKLWIEQYGNVEIINHKTGDKCVLNFKPCGLFGKELHKVEGYIQDKSKKKLCALYGKWTECLYSVDPATFDAYKKNDKKNTEEKKNSKQMSTSEELDEMPVPDSESVFIIPGSVLLWRIAPRPPNSAQMYNFTSFAMVLNEVDKDMESVIPKTDCRLRPDIRAMENGEIDQASEEKKRLEEKQRAARKNRSKSEEDWKTRWFHQGPNPYNGAQDWIYSGSYWDRNYFNLPDIY
B3: Venus(N)·ORP5 (protein, UniProt Q9H0X9 1-879)
chain: MKEEAFLRRRFSLCPPSSTPQKVDPRKLTRNLLLSGDNELYPLSPGKDMEPNGPSLPRDEGPPTPSSATKVPPAEYRLCNGSDKECVSPTARVTKKETLKAQKENYRQEKKRATRQLLSALTDPSVVIMADSLKIRGTLKSWTKLWCVLKPGVLLIYKTPKVGQWVGTVLLHCCELIERPSKKDGFCFKLFHPLDQSVWAVKGPKGESVGSITQPLPSSYLIFRAASESDGRCWLDALELALRCSSLLRLGTCKPGRDGEPGTSPDASPSSLCGLPASATVHPDQDLFPLNGSSLENDAFSDKSERENPEESDTETQDHSRKTESGSDQSETPGAPVRRGTTYVEQVQEELGELGEASQVETVSEENKSLMWTLLKQLRPGMDLSRVVLPTFVLEPRSFLNKLSDYYYHADLLSRAAVEEDAYSRMKLVLRWYLSGFYKKPKGIKKPYNPILGETFRCCWFHPQTDSRTFYIAEQVSHHPPVSAFHVSNRKDGFCISGSITAKSRFYGNSLSALLDGKATLTFLNRAEDYTLTMPYAHCKGILYGTMTLELGGKVTIECAKNNFQAQLEFKLKPFFGGSTSINQISGKITSGEEVLASLSGHWDRDVFIKEEGSGSSALFWTPSGEVRRQRLRQHTVPLEEQTELESERLWQHVTRAISKGDQHRATQEKFALEEAQRQRARERQESLMPWKPQLFHLDPITQEWHYRYEDHSPWDPLKDIAQFEQDGILRTLQQEAVARQTTFLGSPGPRHERSGPDQRLRKASDQPSGHSQATESSGSTPESCPELSDEEQDGDFVPGGESPCPRCRKEARRLQALHEAILSIREAQQELHRHLSAMLSSTARAAQAPTPGLLQSPRSWFLLCVFLACQLFINHILK
B4: Venus(N)·OSBP (protein, UniProt P22059 1-807)
chain: MAATELRGVVGPGPAAIAALGGGGAGPPVVGGGGGRGDAGPGSGAASGTVVAAAAGGPGPGAGGVAAAGPAPAPPTGGSGGSGAGGSGSAREGWLFKWTNYIKGYQRRWFVLSNGLLSYYRSKAEMRHTCRGTINLATANITVEDSCNFIISNGGAQTYHLKASSEVERQRWVTALELAKAKAVKMLAESDESGDEESVSQTDKTELQNTLRTLSSKVEDLSTCNDLIAKHGTALQRSLSELESLKLPAESNEKIKQVNERATLFRITSNAMINACRDFLMLAQTHSKKWQKSLQYERDQRIRLEETLEQLAKQHNHLERAFRGATVLPANTPGNVGSGKDQCCSGKGDMSDEDDENEFFDAPEIITMPENLGHKRTGSNISGASSDISLDEQYKHQLEETKKEKRTRIPYKPNYSLNLWSIMKNCIGKELSKIPMPVNFNEPLSMLQRLTEDLEYHELLDRAAKCENSLEQLCYVAAFTVSSYSTTVFRTSKPFNPLLGETFELDRLEENGYRSLCEQVSHHPPAAAHHAESKNGWTLRQEIKITSKFRGKYLSIMPLGTIHCIFHATGHHYTWKKVTTTVHNIIVGKLWIDQSGEIDIVNHKTGDKCNLKFVPYSYFSRDVARKVTGEVTDPSGKVHFALLGTWDEKMECFKVQPVIGENGGDARQRGHEAEESRVMLWKRNPLPKNAENMYYFSELALTLNAWESGTAPTDSRLRPDQRLMENGRWDEANAEKQRLEEKQRLSRKKREAEAMKATEDGTPYDPYKALWFERKKDPVTKELTHIYRGEYWECKEKQDWSSCPDIF

Chains of the proteins cited; added tags and fusions are not shown.
UniProt P60880: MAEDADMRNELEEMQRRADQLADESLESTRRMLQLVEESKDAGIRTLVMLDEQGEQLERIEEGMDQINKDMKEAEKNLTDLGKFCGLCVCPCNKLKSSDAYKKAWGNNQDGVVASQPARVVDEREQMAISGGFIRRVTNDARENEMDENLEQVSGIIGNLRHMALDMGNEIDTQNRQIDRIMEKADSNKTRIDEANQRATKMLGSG
UniProt Q9H1P3: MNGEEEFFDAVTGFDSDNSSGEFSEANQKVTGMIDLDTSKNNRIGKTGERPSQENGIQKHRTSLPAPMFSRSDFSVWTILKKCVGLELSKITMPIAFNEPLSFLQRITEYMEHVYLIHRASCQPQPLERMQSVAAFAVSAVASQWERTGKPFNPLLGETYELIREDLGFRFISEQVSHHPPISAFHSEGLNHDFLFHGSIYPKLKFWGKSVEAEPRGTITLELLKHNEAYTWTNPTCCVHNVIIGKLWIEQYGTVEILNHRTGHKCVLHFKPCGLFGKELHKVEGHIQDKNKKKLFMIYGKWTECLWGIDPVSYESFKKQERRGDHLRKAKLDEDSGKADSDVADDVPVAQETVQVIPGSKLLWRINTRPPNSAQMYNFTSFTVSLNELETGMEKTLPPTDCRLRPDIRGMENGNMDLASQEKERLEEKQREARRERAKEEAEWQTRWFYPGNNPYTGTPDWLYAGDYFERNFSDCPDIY
UniProt Q9H4L5: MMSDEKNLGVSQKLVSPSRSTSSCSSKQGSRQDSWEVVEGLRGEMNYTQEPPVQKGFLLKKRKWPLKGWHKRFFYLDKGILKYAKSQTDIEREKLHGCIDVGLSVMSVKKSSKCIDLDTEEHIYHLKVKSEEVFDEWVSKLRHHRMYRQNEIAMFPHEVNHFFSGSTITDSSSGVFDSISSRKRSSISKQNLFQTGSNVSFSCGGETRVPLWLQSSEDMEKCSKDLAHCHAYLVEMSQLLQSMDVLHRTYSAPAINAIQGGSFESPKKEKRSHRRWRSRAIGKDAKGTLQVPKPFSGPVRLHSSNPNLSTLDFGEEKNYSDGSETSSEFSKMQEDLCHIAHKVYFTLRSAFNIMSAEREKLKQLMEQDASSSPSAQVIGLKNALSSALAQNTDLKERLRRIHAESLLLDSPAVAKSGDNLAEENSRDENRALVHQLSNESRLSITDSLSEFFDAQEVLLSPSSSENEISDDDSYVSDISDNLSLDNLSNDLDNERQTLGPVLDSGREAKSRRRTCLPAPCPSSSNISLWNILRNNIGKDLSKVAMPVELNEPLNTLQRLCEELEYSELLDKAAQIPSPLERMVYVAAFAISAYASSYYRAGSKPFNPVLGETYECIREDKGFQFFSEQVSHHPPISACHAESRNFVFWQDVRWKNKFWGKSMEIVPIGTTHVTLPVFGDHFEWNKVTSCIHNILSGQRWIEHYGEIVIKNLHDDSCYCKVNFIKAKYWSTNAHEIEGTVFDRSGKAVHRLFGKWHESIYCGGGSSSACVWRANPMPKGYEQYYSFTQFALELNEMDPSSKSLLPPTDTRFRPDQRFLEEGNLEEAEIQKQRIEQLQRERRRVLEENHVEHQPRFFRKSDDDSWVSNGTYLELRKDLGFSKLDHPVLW

Results are given in words; binding and its absence hold for the method and conditions named. Binding seen in cells or lysates may run through a third protein. Some entries that bind do so weakly or less than the wild type.

This assay has as its target Venus(C)·SNAP-25 (UniProt P60880). Kind of assay: split reporter; BiFC of Venus(N) and Venus(C) fusions in transfected HEK293 cells, fixed after 24 h; co-transfection marker mCherry or mCherry·ORP.
For “Venus(N)·ORP2 (from UniProt Q9H1P3 1-480)”, the binding entry is given as “binds”. In the case of “Venus(N)·ORP3 (from UniProt Q9H4L5 1-887)”, the binding result was “no binding”. As for B1, the binding entry is “binds”. For the molecule B2, the binding result is given as “binds”.

In the case of B3, the binding entry is “binds”. For B4, the binding result is reported as “binds”.

(Values after article PMC7904734, “ORP/Osh mediate cross-talk between ER-plasma membrane contact site components and plasma membrane SNAREs” (Cellular and Molecular Life Sciences: CMLS, 2020).)
